Measurements published in PubChem BioAssay AID686979 (National Center for Advancing Translational Sciences (NCATS), 2013).
“And” between values parts separate entries of the source, which are not always exact repeats. Equal values may be shown once. Out of some 420,000 compounds screened, about 50,000 (12%) were called active. This list was built around the results that the source calls inconclusive (neither active nor inactive); the mix of calls is not that of the screen. Calls follow the shape of the dose curve; as a rule, active = well fitted inhibition curve with a large enough effect; inconclusive = small, poorly fitted or top-dose-only effect; inactive = flat fitted curve, though single readings scatter. Potencies beside an inconclusive call are fits to weak or partial responses and may not hold up. More than one record can exist for a structure, and the calls need not agree.

assay: qHTS for Inhibitors of human tyrosyl-DNA phosphodiesterase 1 (TDP1): qHTS in cells in presence of CPT; conditions: chicken DT40 Tdp1-/-;hTDP1 cells + 20 nM CPT, ATP luminescence, 48 h; activity change, negative = growth inhibition: at 46.2 µM (top of the series) unless noted; also: nearly all actives have a fitted effect of over 55% in size
Outline: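 Chicken DT40 Tdp1-/- cells complemented with human TDP1, 400 cells/well, exposed to compounds plus 20 nM camptothecin for at least 48 h at 37 C; viability read as ATP content by CellTiter-Glo luminescence.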
% is scaled to controls: 0 for no effect and ±100 for the full control effect; potency is read from the fitted curve at half-maximal effect; tags tell the direction and shape of the fitted curve.

Structure (SMILES)	Potency	activity change, negative = growth inhibition
Cc1cc(C)nc(Sc2nc(C)nc3c2oc2ccccc23)n1	inconclusive: 29.1 µM [inhibitor, single point]	–
O=c1[nH]c(Nc2ccccn2)cc2ccccc12	inconclusive: 20.6 µM [inhibitor, single point]	–
CN(Cc1ccccc1)C(c1ccnc2ccccc12)c1nnnn1-c1ccc2c(c1)OCCO2 (stereo not given)	inconclusive: 29.1 µM [inhibitor, single point]	–
COc1ccc(C(C(=O)NCc2ccccc2)N(C(=O)Cn2nnc3ccccc32)c2cccc(OC)c2)cc1 (stereo not given)	inconclusive: 23.1 µM [inhibitor, single point]	–
COc1ccc(N2CCN(c3ncnc4c3[nH]c3ccccc34)CC2)cc1	active: 3.66 µM	–
CCOc1ccc(C(=O)Nc2ncccc2Cl)cc1	–	inactive: -4.95%
CCOC(=O)N1CCC(NC(=O)CSCc2nc(-c3sccc3C)oc2C)CC1	inconclusive: 20.6 µM [inhibitor, partial curve, poor fit]	–
CC1=C(C(=O)N2CCN(c3cc(C)ccc3C)CC2)C2(CCC(C)CC2)OC1=O (stereo not given)	inconclusive: 10.3 µM [inhibitor, partial curve]	–
CN(C)c1ccc(NC(=O)CSc2nnc(-c3ccco3)c(-c3ccco3)n2)cc1	inconclusive: 23.1 µM [inhibitor, single point]	–
CN1C(=O)N(CC(=O)N2CCN(S(=O)(=O)c3ccc(Cl)s3)CC2)C(=O)C12CCCCC2	inconclusive: 20.6 µM [inhibitor, partial curve, poor fit]	–
CCOc1cc(/C=C/C(=O)OCC(=O)NCCN2C(=O)CSC2=O)ccc1OCC(C)C	inconclusive: 29.1 µM [inhibitor, single point]	–
CCOC(=O)c1c(NC(=O)CCS(=O)(=O)c2ccccc2)sc2c1CCN(C)C2	active: 16.4 µM	–
Cc1ccc(NC(=O)CSc2nc(=O)n(CCN(C)C)c3c2CCCC3)cc1Cl	inconclusive: 29.1 µM [inhibitor, single point]	–
Cc1cc(O)c(C(C)C)cc1N=Cc1ccc(N(C)C)cc1	active: 2.91 µM	–
COc1cc(C(c2c(C)[nH][nH]c2=O)c2c(C)[nH][nH]c2=O)ccc1OCc1ccc([N+](=O)[O-])cc1	inconclusive: 25.9 µM [inhibitor, partial curve]	–
N#Cc1nc(COc2ccccc2)oc1N1CCN(Cc2ccccc2)CC1	inconclusive: 29.1 µM [inhibitor, single point]	–
Cc1ccc(NC(=O)C2CSC3(C)CCC(=O)N23)cc1S(=O)(=O)N1CCCCCC1 (stereo not given)	inconclusive: 20.6 µM [inhibitor, single point]	–
O=S1(=O)c2ccccc2Nc2ccccc21	–	inactive: 7.61%
O=C(Nc1nnc(-c2ccccc2)s1)c1ccccc1O	inconclusive: 16.4 µM [inhibitor, single point]	–
O=C(CN(c1ccccc1F)S(=O)(=O)c1ccccc1)N1CCCCCC1	inconclusive: 29.1 µM [inhibitor, single point]	–
COc1ccccc1-c1ncn(Cc2cccc(-c3ccccc3)c2)c1-c1ccco1	active: 25.9 µM	–
[2H]c1c([2H])c([2H])c(-c2nc(N3CCCCCC3)sc2C(=O)c2ccccc2)c([2H])c1[2H]	inconclusive: 20.6 µM [inhibitor, single point]	–

Structure (SMILES)	Potency	activity change, negative = growth inhibition
COc1cccc(NC(=O)CCC(=O)Nc2ccc3nc(N4CCOCC4)cc(C)c3c2)c1	inconclusive: 23.1 µM [inhibitor, single point]	–
Cc1ccc(C(=O)Nc2nc3ccc(S(C)(=O)=O)cc3s2)o1	active: 10.3 µM	–
COc1cc(C(=O)N2CCN=C2c2ccccc2)cc(OC)c1OC	–	inactive: 2.65%
O=C1C(SCCO)=C(SCCO)C(=O)c2ccccc21	active: 631 nM and active: 562 nM and active: 51.7 nM	–
CC[n+]1c(/C=C/C=C/N(C(C)=O)c2ccccc2)sc2ccccc21	inconclusive: 25.9 µM [inhibitor, single point]	–
Cc1nn(-c2ccccc2)c(C)c1Cc1ccc(O)cc1	inconclusive: 25.9 µM [inhibitor, single point]	–
Cc1cc(N2CCOCC2)nc2ccc(NC(=O)CCC(=O)N3CCN(c4ccccc4)CC3)cc12	inconclusive: 29.1 µM [inhibitor, single point]	–
N=c1n(CC(=O)c2ccc(Br)cc2)c2ccccc2n1Cc1ccccc1	active: 5.17 µM	–
COc1ccc(-n2nc(C(=O)NCC(=O)NCCC3=CCCCC3)c3ccccc3c2=O)cc1	inconclusive: 29.1 µM [inhibitor, single point]	–
CC(=O)N1c2ccc(S(=O)(=O)N3CCCC(C(=O)NCc4ccccc4Cl)C3)cc2CC1C (stereo not given)	inconclusive: 16.4 µM [inhibitor, single point]	–
O=C(O)c1ccc(/C=N/NC(=O)c2cc3c(ccc4ccccc43)o2)cc1	inconclusive: 29.1 µM [inhibitor, single point]	–
CC(C)Oc1cccc(C(=O)C2CCCN(C(=O)c3cncs3)C2)c1 (stereo not given)	inconclusive: 29.1 µM [inhibitor, single point]	–
COc1ccc(Oc2ncc3nc(-c4ccc(F)cc4)c(=O)n(Cc4cccs4)c3n2)cc1	–	inactive: 12.4%
CCCCCCCC/C=C\CCCCCCCC(=O)OCC(CO)OC(=O)CCCCCCC/C=C\CCCCCCCC (stereo not given)	–	inactive: -28.6% [at 4.12 µM]
O=C(CN1C(=O)COc2ccc(S(=O)(=O)NC3CCCC3)cc21)Nc1ccc(Cl)cc1F	inconclusive: 29.1 µM [inhibitor, single point]	–
O=C(COc1ccc(-c2ccccc2)cc1)N/N=C/c1cc(O)ccc1Br	inconclusive: 29.1 µM [inhibitor, single point]	–
CC(C)C(=O)N1CCC2(CC1)Oc1ccc(F)cc1C(=O)C21CC(c2ccc(Cl)cc2)=NO1 (stereo not given)	inconclusive: 29.1 µM [inhibitor, single point]	–
COc1ccc(-c2c(C#N)c(N)nc3c2c(=O)n(C)c(=O)n3C)cc1Cl	inconclusive: 16.4 µM [inhibitor, partial curve, poor fit]	–
C#CCOc1c(Br)cc(/C=N/O)cc1OCC	–	inactive: -16.7%
C=CCc1ccccc1OCC(O)CN1CCN(Cc2ccc3c(c2)OCO3)CC1 (stereo not given)	active: 16.4 µM	–
CCOC(=O)c1c(C)oc2ccc(N(C(=O)c3ccncc3)S(=O)(=O)c3ccc(CC)cc3)cc12	active: 5.8 µM	–
COc1ccc(OC)c(S(=O)(=O)Nc2ccc3c(c2)n(C)c(=O)n3C)c1	inconclusive: 16.4 µM [inhibitor, single point] and inconclusive: 29.1 µM [inhibitor, single point]	–

Structure (SMILES)	Potency	activity change, negative = growth inhibition
CC(=O)Nc1cccc(NC(=O)c2ccc(Br)cc2)c1	–	inactive: 1.07%
CCCCCCCCN1C(=O)[C@H](CC(=O)NCc2ccc(C)o2)C[C@@]2(C(=O)OC)CCCCC=C12	inconclusive: 18.4 µM [inhibitor, single point]	–
Cc1nn2c(-c3ccco3)nnc2c2ccccc12	inconclusive: 25.9 µM [inhibitor, single point]	–
CCOc1ccc(NS(=O)(=O)c2ccc(C(=O)N(C)CC(=O)Nc3cccc(OC)c3)cc2)cc1	active: 18.4 µM	–
CCc1noc(C)c1C(=O)Nc1cc(S(=O)(=O)N2CCOCC2)ccc1N1CCN(CC)CC1	–	inactive: 0.858%
Cc1onc(-c2c(F)cccc2Cl)c1C(=O)NCC1COc2ccccc2O1 (stereo not given)	inconclusive: 23.1 µM [inhibitor, single point]	–
CCCn1nc(NC(=O)CC(C)C)c2cc3ccccc3nc21	–	inconclusive: -31.3% [inhibitor]
CC(SC(C)C(=O)NN=Cc1cccc(Cl)c1)C(=O)NN=Cc1cccc(Cl)c1 (stereo not given)	inconclusive: 20.6 µM [inhibitor, partial curve, poor fit]	–
Cc1c(C(=O)NCc2ccc3c(c2)OCO3)oc2ccc(S(=O)(=O)N3CCCCC3)cc12	inconclusive: 29.1 µM [inhibitor, partial curve]	–
COc1ccc(OC)c(/C=C/C(=O)c2ccc3c(c2)OCO3)c1	inconclusive: 18.4 µM [inhibitor, single point]	–
CCOc1ccc(NC(=O)c2cn(CC(C)C)c(=O)c3c2c2ccccc2n3C)cc1	inconclusive: 16.4 µM [inhibitor, single point]	–
O=C(COc1cccnc1[N+](=O)[O-])NCCc1ccc(Cl)cc1Cl	–	inactive: -6.34%
C=CCC1C=C(Cc2ccccc2)CC(CC=C)N1 (stereo not given)	active: 18.4 µM	–
C=C(C)CCC(C)N1CCC(n2nccc2NC(=O)CCCc2ccccc2)CC1 (stereo not given)	inconclusive: 20.6 µM [inhibitor, single point]	–
CCc1ccc(NC(=O)c2nc3nc(C)cc(C(F)F)n3n2)cc1	inconclusive: 20.6 µM [inhibitor, partial curve]	–
O=S(=O)(Nc1nc2ccccc2nc1Cl)c1ccc2ccccc2c1	inconclusive: 7.31 µM [inhibitor, partial curve]	–
CCc1nc2ccc(C(=O)Nc3ccc4c(c3)OCC(=O)N4)cn2c1N(C)Cc1nccn1C	–	inconclusive: -32.1% [inhibitor]
Cc1sc(-n2cccc2)c(C(C)NC(=O)Nc2cccc(C(F)(F)F)c2)c1C (stereo not given)	inconclusive: 20.6 µM [inhibitor, single point]	–
Cc1cc(O)c(C)c2c1CC[C@H]1[C@H](C)C(=O)O[C@H]21	–	inactive: 3.92% [at 9.04 µM]
COc1cc(OC)cc(C(=O)NCCc2csc3nc(-c4ccccc4F)nn23)c1	–	inactive: -21.4%
CCN(CC)/C(Sc1ccccc1)=C(/C(Cl)=C(Cl)Cl)[N+](=O)[O-]	active: 20.6 µM	–
